“And” between values parts separate entries of the source, which are not always exact repeats. Identical values can stand only once. About 64,000 (15%) of roughly 420,000 compounds were called active. Inconclusive means that the source gave no clear call. Such entries were picked first, then a sample of the others. Calls come from the whole dose curve; as a rule, active = well fitted inhibition curve with a large enough effect; inconclusive = small, poorly fitted or top-dose-only effect; inactive = flat fitted curve, though single readings scatter. Where the call is inconclusive, the potency comes from a doubtful curve fit.
Assay: qHTS for Inhibitors of human tyrosyl-DNA phosphodiesterase 1 (TDP1): qHTS in cells in absence of CPT; note: nearly all actives have a fitted effect of over 55% in size
Conditions: DT40 Tdp1-/- hTDP1 cells, no CPT, ATP luminescence, 48 h; series mostly up to 46.2 µM
In short: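 Cells were dispensed at 400 per well, compounds added by pin tool, plates incubated ≥48 hr at 37 °C, then CellTiter-Glo added for 30 min at room temperature before luminescence reading. Line: DT40 Tdp1-/- complemented with hTDP1; camptothecin omitted.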
In the case of COc1ccc(/C=N/NC(=O)c2cccc([N+](=O)[O-])c2)cc1O, the Potency is reported as inconclusive: 16.4 µM [inhibitor, partial curve]. In the case of O=C(COC(=O)c1ccccc1OCCOc1ccccc1)Nc1ccc(Br)cc1, the Potency is reported as “inactive”. In the case of CCCc1nc(SC2CCCC2)c2c(=O)n(C)c(=O)n(C)c2n1, the Potency is reported as active: 23.1 µM. For COc1ccc(-c2ccc3ccccc3n2)cc1OC, the Potency was inconclusive: 18.4 µM [inhibitor, single point]. For CC(=O)Nc1cccc(-c2ccnc3c2CC(C)(C(=O)Nc2ccc(F)c(Cl)c2)O3)c1 (stereo not given), the Potency was inconclusive: 29.1 µM [inhibitor, single point]. For COC(=O)c1c(NC(=O)CN(c2ccccc2)S(C)(=O)=O)sc2c1CCCC2, the Potency was inconclusive: 20.6 µM [inhibitor, single point]. For O=C(CN1C(=O)c2cccc3cccc1c23)N1CCc2ccccc2C1, the Potency was active: 11.6 µM. In the case of O=C(NCC1OCCCN1S(=O)(=O)c1cc(F)ccc1F)C(=O)NC1CCCCC1 (stereo not given), the Potency is reported as “inactive”. In the case of O=S1(=O)CC(N2CCCC2)CN1Cc1cn(Cc2ccc(Cl)cc2)nn1 (stereo not given), the Potency is reported as “inactive”. With O=C(COc1ccc(Cl)cc1Cl)NCCN1CCCC1 the Potency was “inactive”. For O=C1CC(c2cc3c(cc2Br)OCO3)C2=C(CCCC2=O)N1 (stereo not given), the Potency was “inactive”. With COCCC(=O)Nc1ccc2c(c1)CN(C(=O)CCOC)CC2 the Potency was “inactive”. For Cc1cccc2c1-c1sc(C(=O)Nc3cccc([N+](=O)[O-])c3C)cc1CO2, the Potency was active: 23.1 µM. For CCOc1ccc(N2CC(NC(=O)c3ccc(S(=O)(=O)N4CCCC4)cc3)CC2=O)cc1 (stereo not given), the Potency was “inactive”. For Cc1ccc(C(=O)N/C(=C/c2ccc(F)cc2)C(=O)NCc2ccncc2)cc1, the Potency was “inactive”. In the case of C/C=C(\C)CN1CCC(n2nccc2NC(=O)c2ccc(OC)cc2)CC1, the Potency is reported as “inactive”. In the case of Cc1cccc(NC2=NCC(=O)N2Cc2cccs2)c1, the Potency is reported as “inactive”. With Cc1ccc(SCCNC(=O)/C=C/c2ccc([N+](=O)[O-])cc2)cc1 the Potency was inconclusive: 13 µM [inhibitor, partial curve]. For O=C(/C=C/c1ccc(Br)o1)NCCCN1CCOCC1, the Potency was inconclusive: 16.4 µM [inhibitor, single point]. For O=c1[nH]c2ccc(NCc3ccc(OCc4ccccc4Cl)cc3)cc2[nH]1, the Potency was inconclusive: 29.1 µM [inhibitor, single point]. In the case of CCOC(=O)c1c(C)[nH]c(C)c1S(=O)(=O)NCC(=O)NCc1ccc(C)cc1, the Potency is reported as “inactive”. With CCN(CC)S(=O)(=O)c1ccc2c(c1)nc(CN(C)C(=O)Nc1ccc(Cl)cc1)n2C the Potency was inconclusive: 14.6 µM [inhibitor, partial curve]. With CCn1c(SC/C=C/c2ccccc2)nnc1-c1cccs1 the Potency was inconclusive: 29.1 µM [inhibitor, single point]. In the case of Clc1ccc(CN2CCCCCCC2)cc1Cl, the Potency is reported as inconclusive: 14.1 µM [inhibitor, partial curve, poor fit]. With O=C(c1csnn1)N1CCC2(CC1)CCN(c1cccc(-c3ccccc3)c1)CC2 the Potency was inconclusive: 29.1 µM [inhibitor, single point]. With COc1cc(/C=C/C2=CC(C)(C)NC(=S)N2)cc(OC)c1OC the Potency was “inactive”. For O=C1CNC(=S)N1CCc1ccc(Cl)cc1, the Potency was active: 16.4 µM. In the case of CCN(CC)S(=O)(=O)c1ccc(C(=O)NCC(=O)NCc2ccc3c(c2)OCO3)cc1, the Potency is reported as “inactive”. In the case of CCn1c(Cc2ccccc2)nnc1SCC(=O)NC(C)(C)C, the Potency is reported as “inactive”. With COc1ccccc1N1CCN(C(=O)c2ccc(C(C)(C)C)cc2)CC1 the Potency was active: 5.8 µM. With O=C(CN1C(=O)COc2ccc(S(=O)(=O)N3CCCC3)cc21)Nc1cccc(F)c1 the Potency was inconclusive: 4.11 µM [inhibitor, partial curve]. In the case of O=C(Nc1nc(-c2cccs2)cs1)c1ccc(Cl)cc1, the Potency is reported as active: 14.6 µM. For c1ccc(Nc2nc(NCCN3CCOCC3)nc(Nc3ccccc3)n2)cc1, the Potency was inconclusive: 29.1 µM [inhibitor, single point]. For COc1ncccc1C(=O)NC1CCCc2c1cnn2-c1ccc(C)c(C)c1 (stereo not given), the Potency was active: 16.4 µM. For Cc1cc(C)nc(N/N=C/c2ccncc2)n1, the Potency was “inactive”. In the case of O=C1CSC(=S)N1N=Cc1ccc(Cl)s1, the Potency is reported as “inactive”. For O=C(CCn1cnc2ccccc2c1=O)Nc1nc(-c2ccc(Br)cc2)cs1, the Potency was active: 16.4 µM. For NC1=NC(=O)/C(=C/c2ccc(Br)cc2)S1, the Potency was “inactive”. With c1ccc(CN2CCC3CC2c2cc(N4CCCCC4)ccc23)cc1 (stereo not given) the Potency was inconclusive: 18.4 µM [inhibitor, single point]. For COc1cc(C(=O)NCCOc2cc(C)cc(C)c2)c(Br)c(OC)c1OC, the Potency was inconclusive: 20.6 µM [inhibitor, single point]. In the case of CN(Cc1ccc(F)cc1)S(=O)(=O)c1nnc(NC(=O)c2ccccc2Br)s1, the Potency is reported as inconclusive: 14.6 µM [inhibitor, partial curve] and inconclusive: 29.1 µM [inhibitor, single point]. For COc1ccc(NC(=O)c2cc(F)c(F)cc2Cl)cc1Cl, the Potency was inconclusive: 11.6 µM [inhibitor, partial curve]. With CNC(=O)c1cc2cc(Br)ccc2s1 the Potency was “inactive”. In the case of O=C(Cn1c(=O)n(Cc2ccc(Cl)cc2)c(=O)c2cccnc21)Nc1ccccc1C(F)(F)F, the Potency is reported as inconclusive: 1.46 µM [inhibitor, full curve]. In the case of CCOC(=O)c1c(C)c(-c2ccccc2)n(CC(=O)NCc2cccc(OC)c2)c1C, the Potency is reported as inconclusive: 14.6 µM [inhibitor, single point]. In the case of OC(c1ccc(Cl)cc1)c1nnc(-c2ccccc2)o1 (stereo not given), the Potency is reported as inconclusive: 5.8 µM [inhibitor, partial curve, poor fit]. For Cn1c(=O)oc2cc(S(=O)(=O)N3CCC(C(=O)NCc4ccccc4)CC3)ccc21, the Potency was “inactive”. For Cc1ccc(NS(=O)(=O)c2ccc(NC(=O)c3ccccc3C(=O)O)cc2)cc1C, the Potency was “inactive”. In the case of Cc1ccc(-n2nc3c(=O)n(CCCC(=O)NCc4ccccc4C)nc(C)c3c2C)cc1, the Potency is reported as active: 20.6 µM. For CC(C)CNC(=O)c1cccc2c(-c3ccc(F)c(F)c3)coc12, the Potency was inconclusive: 25.9 µM [inhibitor, single point].

Source: PubChem BioAssay AID686978 (National Center for Advancing Translational Sciences (NCATS), 2013)
Potency is the fitted concentration of half-maximal effect; tags give direction and shape of the fitted curve.
